From the supplement of paper PMC3334620
Over roughly 33,000 sequences, “E-score (-0.5 to 0.5)” has its median near -0.053; the highest 2% begin near 0.37. Some of the results follow.

molecular target: Hap1 (UniProt P0CE41); experiment: PBM E-score (8-mer binding enrichment) (E-score (-0.5 to 0.5)); higher = stronger / more preferred TF binding; most listed sequences are background and not binding sites; details: protein concentration: 200 nM; construct: GST-DNA-binding domain
Experimental: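 Universal 'all 10-mer' protein binding microarrays (Agilent AMADID 015681) probed with GST-tagged S. cerevisiae TFs (full-length or DBD) made by in vitro transcription/translation (PURExpress), about 100-200 nM. Bound TF was detected with fluorescent anti-GST. Each ungapped 8-mer (which stands for itself and its reverse complement) is scored by the PBM enrichment score (E-score), a modified Wilcoxon-Mann-Whitney statistic from -0.5 to +0.5, computed with the Universal PBM Analysis Suite. Scale: above 0.35 generally sequence-specific binding.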

Chain of UniProt P0CE41 (P0CE41 whole entry, the tested form may be a part): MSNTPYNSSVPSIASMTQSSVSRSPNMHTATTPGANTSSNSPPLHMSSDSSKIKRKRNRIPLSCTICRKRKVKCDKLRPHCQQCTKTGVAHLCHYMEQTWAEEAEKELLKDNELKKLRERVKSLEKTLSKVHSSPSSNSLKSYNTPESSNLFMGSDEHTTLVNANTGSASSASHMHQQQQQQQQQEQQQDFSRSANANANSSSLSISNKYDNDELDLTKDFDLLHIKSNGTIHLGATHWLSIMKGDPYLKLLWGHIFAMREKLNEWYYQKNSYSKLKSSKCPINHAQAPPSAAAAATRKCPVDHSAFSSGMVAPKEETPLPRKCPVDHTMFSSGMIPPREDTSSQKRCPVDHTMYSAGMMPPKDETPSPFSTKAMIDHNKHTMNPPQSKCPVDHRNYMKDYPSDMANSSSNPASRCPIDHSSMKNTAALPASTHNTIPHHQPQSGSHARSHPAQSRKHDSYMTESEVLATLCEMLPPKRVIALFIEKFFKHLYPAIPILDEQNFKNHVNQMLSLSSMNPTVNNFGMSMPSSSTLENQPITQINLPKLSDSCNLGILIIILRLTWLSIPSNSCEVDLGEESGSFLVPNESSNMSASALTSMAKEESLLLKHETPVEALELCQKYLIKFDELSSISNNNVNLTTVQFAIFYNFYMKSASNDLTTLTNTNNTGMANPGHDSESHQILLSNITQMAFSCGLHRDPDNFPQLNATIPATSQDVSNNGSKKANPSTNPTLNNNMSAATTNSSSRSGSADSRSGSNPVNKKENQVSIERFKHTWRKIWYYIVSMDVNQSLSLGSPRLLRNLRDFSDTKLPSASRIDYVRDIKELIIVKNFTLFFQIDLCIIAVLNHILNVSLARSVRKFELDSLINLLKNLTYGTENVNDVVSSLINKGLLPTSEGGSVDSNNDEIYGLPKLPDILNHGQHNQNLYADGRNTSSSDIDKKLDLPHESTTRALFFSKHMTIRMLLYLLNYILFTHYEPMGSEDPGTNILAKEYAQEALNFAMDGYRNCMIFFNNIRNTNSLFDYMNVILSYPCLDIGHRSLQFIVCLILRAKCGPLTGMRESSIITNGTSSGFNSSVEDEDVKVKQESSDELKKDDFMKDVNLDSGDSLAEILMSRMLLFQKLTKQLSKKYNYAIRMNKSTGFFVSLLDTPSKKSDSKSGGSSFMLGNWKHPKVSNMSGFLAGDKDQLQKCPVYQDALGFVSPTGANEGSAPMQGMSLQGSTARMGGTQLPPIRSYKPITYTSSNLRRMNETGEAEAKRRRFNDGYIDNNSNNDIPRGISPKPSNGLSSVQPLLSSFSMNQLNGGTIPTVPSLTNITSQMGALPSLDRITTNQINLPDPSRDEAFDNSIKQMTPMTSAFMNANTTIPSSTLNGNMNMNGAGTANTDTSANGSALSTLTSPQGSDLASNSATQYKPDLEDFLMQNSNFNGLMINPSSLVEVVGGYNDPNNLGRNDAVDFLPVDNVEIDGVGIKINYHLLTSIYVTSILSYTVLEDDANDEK

Row | Sequence | PBM E-score
1 | GTGGGCTA | -0.262
2 | AGAAGTCG | -0.0961
3 | CATGTCTA | -0.231
4 | ACATGCAT | -0.17
5 | GTGGATGA | -0.266
6 | CCCACCGG | 0.374
7 | AGAAATAA | 0.0188
8 | AATGGTGA | -0.253
9 | GCCATAGA | -0.189
10 | CGGCGAAA | 0.32
11 | AATCTTAA | -0.153
12 | AGACTTAA | -0.18
13 | CGGGCTGA | 0.196
14 | AGCACGGC | 0.14
15 | ACAGGAGT | -0.116
16 | GAGTCCCC | -0.181
17 | ATCCAATC | -0.0654
18 | ACTTAGAA | -0.237
19 | TACGCTGA | -0.0321
20 | GTCAGAGA | -0.155
21 | TTATGGAA | 0.0178
22 | ATTGACGA | -0.132
23 | ATGCAAAC | -0.165
24 | CCCATAAA | -0.0271
25 | CAGCCTGA | -0.142

Row | Sequence | PBM E-score
26 | ACTTTTAC | 0.13
27 | CTCGCCCA | -0.0894
28 | TAAAGCAA | -0.0198
29 | CATTGCAA | -0.133
30 | AATGCCGT | 0.334
31 | AGGACGAA | 0.128
32 | CATGAGCC | -0.25
33 | ATTGGGGA | -0.0998
34 | AATCACTA | -0.018
35 | CGCAGTAG | -0.0792
36 | AGCCTTCA | -0.144
37 | CTAGTGAC | -0.106
38 | TGCAGCCA | -0.0851
39 | AATTGCCA | -0.0725
40 | CCATAGCG | 0.025
41 | ATTGTCCG | 0.396
42 | AACACCTC | -0.171
43 | CGCATCGA | 0.0796
44 | AGCCAGCT | -0.172
45 | TATCACCA | 0.021
46 | GGTACAAA | -0.0347
47 | CTCGATGA | -0.0974
48 | GAAGATGC | -0.137
49 | ACGCGGTG | 0.0771
50 | AATACAAA | 0.00742

Row | Sequence | PBM E-score
51 | CCGATATC | 0.458
52 | AAGGGCTG | -0.206
53 | CGCCAAAC | -0.00241
54 | GAACCTAA | 0.125
55 | GGAGGGAA | 0.0256
56 | CAGACAGG | -0.12
57 | GGCGATCA | 0.0275
58 | AGATTGGA | -0.12
59 | CCTATACC | 0.0436
60 | ATTACGTC | -0.00167
61 | CGCATAAC | 0.0442
62 | AACTTGCT | -0.0947
63 | TATTCCGA | 0.357
64 | ACCTGGAG | -0.129
65 | TACTGCAA | -0.113
66 | GACTTCCC | -0.082
67 | CGAAACAC | 0.0343
68 | GCTCGACA | -0.348
69 | CAGGCCTC | -0.24
70 | CACGATTC | 0.0362
71 | AACAAGGC | -0.224
72 | AGATGCTA | -0.122
73 | ACACGTGG | -0.174
74 | ATGACAGG | -0.207
75 | AAATGCAT | 0.0115

Row | Sequence | PBM E-score
76 | CTGTCGGA | 0.23
77 | AACATGGG | 0.00616
78 | GGCATAAC | -0.0753
79 | ACAAGTCA | -0.216
80 | TACAGTGA | -0.289
81 | CCAATCGC | -0.0737
82 | AGCAAGGC | -0.134
83 | ACCCTTGG | -0.108
84 | TCCAGCCA | -0.17
85 | TGCAGGCA | -0.237
86 | CTAGAGGC | -0.266
87 | CCGTCTCG | 0.176
88 | GTGCCGGA | 0.406
89 | AACCACTA | -0.244
90 | GCTTAACC | -0.0526
91 | GGACGGGA | 0.145
92 | GAGTAAGA | 0.0219
93 | ATCACGGC | 0.134
94 | GTTCCTGA | -0.242
95 | AATATGAT | -0.0387
96 | AGTGACGC | 0.0181
97 | CGCTTTTA | 0.273
98 | ACGATCGA | -0.12
99 | AGTGCAGC | -0.0508
100 | GACCAACA | 0.0331

Row | Sequence | PBM E-score
101 | ATAGAAGA | -0.137
102 | ACATAGGT | -0.216
103 | GCATCATA | -0.128
104 | TCATAGAA | -0.0525
105 | GACGATAC | 0.0839
106 | GAAAGTAC | -0.014
107 | AGAGCCCC | -0.0378
108 | CCACATAC | -0.127
109 | ACACTTGA | -0.275
110 | CCTACGCC | -0.195
111 | AGAGCGAG | 0.0379
112 | ACACACCA | -0.281
113 | GTAGACGA | -0.353
114 | ATCACGCC | 0.0803
115 | CCGAGCCA | 0.347
116 | ATATTGGA | -0.0614
117 | TCAGGAAA | -0.209
118 | CTCGGTCA | 0.342
119 | AAGTGATC | -0.139
120 | GATTACGC | 0.0802
121 | ACCCGGGG | 0.306
122 | TAGTGGGA | -0.0386
123 | AGACAATA | 0.0156
124 | CATTATCA | -0.162
125 | ACCGCTAA | 0.217

Row | Sequence | PBM E-score
126 | AGCGAAAG | -0.125
127 | AATTTAAT | -0.118
128 | GCGAGAGC | 0.0138
129 | GCAAATGA | -0.0534
130 | CAAATGCA | -0.261
131 | AATTTGCT | 0.033
132 | TAGTATGA | -0.0439
133 | CGAAAGAG | 0.0191
134 | GAAAGCGA | -0.0815
135 | AACTGCTA | -0.143
136 | AGCCTCTG | -0.228
137 | ACATCCAT | -0.093
138 | GATCTAGA | -0.054
139 | AACTAAGA | 0.0438
140 | CCCAAAGA | -0.0865
141 | CAGGTGTC | -0.025
142 | TACGGACA | 0.291
143 | AGAATGTC | -0.086
144 | ATCTTGTA | -0.181
145 | TAAGCCAA | -0.0972
146 | TACACGCA | -0.152
147 | ACACAATA | -0.0991
148 | GACAGTGA | -0.109
149 | CGCCATAA | -0.0284
150 | GAGAACAC | -0.14

Row | Sequence | PBM E-score
151 | GAACCACA | -0.0552
152 | TCGAAGCA | -0.306
153 | ACCCAGAT | -0.142
154 | ATAAGTCC | 0.348
155 | GACGTGAC | -0.157
156 | CGGACGTC | 0.258
157 | GGAGCGAA | 0.00746
158 | ATGGCATC | -0.106
159 | AGATTTCA | 0.0182
160 | TATTAAGA | 0.041
161 | ATCTATTC | -0.146
162 | GTATTTGA | -0.261
163 | CCTGTTCC | -0.152
164 | CGTCGCAC | 0.00416
165 | ACGGGATG | 0.0154
166 | CGGTACGC | 0.24
167 | GGGTCACA | -0.147
168 | GGGCAGTA | 0.0359
169 | CGGGCATC | 0.0909
170 | GATAATAA | 0.182
171 | CGGAAGTA | 0.38
172 | CCCCACCG | 0.209
